The values that follow come from PubChem BioAssay AID360 (National Center for Advancing Translational Sciences (NCATS), 2006).

About 550 (1.1%) of roughly 48,000 compounds were called active. About 4% were inconclusive and are not listed. Cut-off read from the data, not from the text of the source: active = potency below about 15 µM; inconclusive = mostly about 16 µM to 33 µM; inactive = weaker than that. The list shows a part of the results.
Potency is the fitted concentration of half-maximal effect.

This experiment deals with Lysosomal acid glucosylceramidase (Homo sapiens) (UniProt P04062). Put plainly: Glucocerebrosidase.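 Note: the screen sought inhibitors.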 As to conditions: purified enzyme, resorufin glucoside fluorescence (screen aimed at inhibitors), 20 min. In a few lines: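 Normal human glucocerebrosidase (0.2 nM final) was assayed with resorufin β-D-glucopyranoside (30 uM final) in 50mM citric acid/KH2PO4, 10mM sodium taurocholate, 0.01% tween-20, pH 5.9. Compounds were titrated; fluorescence (Ex 548, Em 600) read after 20 min at RT.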
UniProt P04062, sequence (P04062 whole entry, looked up): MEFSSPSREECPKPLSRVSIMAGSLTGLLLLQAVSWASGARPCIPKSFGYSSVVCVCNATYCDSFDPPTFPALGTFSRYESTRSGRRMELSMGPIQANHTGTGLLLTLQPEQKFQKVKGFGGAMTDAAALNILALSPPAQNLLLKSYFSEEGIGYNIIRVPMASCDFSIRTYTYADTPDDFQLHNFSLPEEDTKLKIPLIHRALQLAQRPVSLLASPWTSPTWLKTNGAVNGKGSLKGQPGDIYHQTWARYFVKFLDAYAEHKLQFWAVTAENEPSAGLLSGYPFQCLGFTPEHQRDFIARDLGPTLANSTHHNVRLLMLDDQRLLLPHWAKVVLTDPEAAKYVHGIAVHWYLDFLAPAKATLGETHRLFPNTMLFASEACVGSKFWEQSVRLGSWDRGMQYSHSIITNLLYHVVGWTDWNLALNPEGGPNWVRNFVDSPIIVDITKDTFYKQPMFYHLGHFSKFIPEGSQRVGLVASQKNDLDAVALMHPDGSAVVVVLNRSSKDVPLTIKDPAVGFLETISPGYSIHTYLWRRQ
For the molecule `O=C1CC(N2CCN(c3ccccc3Cl)CC2)C(=O)N1c1ccccc1` (stereo not given), the Potency was inactive: > 76.9 µM. For `CCCN(c1ccc(C(C)C)cc1)S(=O)(=O)c1c(C)noc1C`, the Potency is inactive: > 76.9 µM. For `COc1ccccc1CNC(=O)[C@@H]1CCCN1C(=O)C1CCN(S(=O)(=O)c2ccc(C)cc2)CC1`, the Potency was inactive: > 76.9 µM. Then `CC1Cc2nc(SCC(=O)NCC3CCCO3)n(Cc3ccccc3)c(=O)c2S1` (stereo not given), with inactive: > 76.9 µM. Consider `Cc1ccccc1NC(=O)C1CCCN1C(=O)NC1CCCCC1` (stereo not given), for which the Potency was inactive: > 76.9 µM. Turning to `CCNS(=O)(=O)c1ccc2nc(NC(=O)c3cccnc3)sc2c1`, the Potency was inactive: > 76.9 µM. The result for `CCOC(=O)/C=C1\SCC(=O)N1CC(=O)Nc1ccc2c(c1)CCC2` reads inactive: > 76.9 µM. In the case of `Cc1noc(/C=C/N(C)C)c1S(=O)(=O)N1CCCC(C(=O)NCc2ccc(Cl)cc2)C1` (stereo not given), the Potency is active: 14 µM. The result for `CC1CCN(CCNC(=O)CCS(=O)(=O)c2ccc(Br)cc2)CC1` reads inactive: > 76.9 µM; that for `Cc1ccccc1C1CC(=O)NC2=C1C(=O)CCC2` (stereo not given), inactive: > 76.9 µM; that for `COc1ccc(NC(=O)c2cc(-c3ccccc3OC)on2)cc1`, inactive: > 76.9 µM. The result for `O=C(Nc1cccnc1)c1cc(-c2cccs2)on1` reads inactive: > 76.9 µM.

`Cc1ccccc1NC(=O)CC1SC(=NC2CCCCC2)NC1=O` (stereo not given): the Potency is inactive: > 76.9 µM. The result for `CC(=O)c1cccc(NC(=O)N2CCCC2C(=O)NC2CCCCC2)c1` (stereo not given) reads inactive: > 76.9 µM; that for `COc1cc(S(=O)(=O)N2CCCC3(CCCCC3)C2)ccc1-n1cnnn1`, inactive: > 76.9 µM; that for `CCn1nccc1C(=O)Nc1ccc(Cl)cc1Cl`, inactive: > 76.9 µM.

Take `COCCn1c(-c2cc(OC)c(OC)c(OC)c2)nc2nc3ccccc3nc21`: the Potency was inactive: > 76.9 µM. In the case of `CCN1CCN(c2cc(=O)n(-c3cc(Cl)ccc3C)c(=O)[nH]2)CC1`, the Potency was inactive: > 76.9 µM. Then `Nc1nc(SCC(=O)N2CCc3ccccc3C2)[nH]c(=O)c1-c1ccccc1`, with inactive: > 76.9 µM; and `COc1cc(C(=O)N2CCCN(c3nc4cc(C)ccc4cc3C#N)CC2)cc(OC)c1OC`, with inactive: > 76.9 µM. Then `Clc1ccccc1-c1nn2c(Cn3cnc4ccccc43)nnc2s1`, with inactive: > 76.9 µM; and `CCOc1ccc(/C(O)=C2/C(=O)C(=O)N(CCOCCO)C2c2ccccc2)cc1` (stereo not given), with inactive: > 76.9 µM. Consider `CSCCC(NC(=O)COc1ccccc1)C(=O)N1CCN(c2ccccc2F)CC1` (stereo not given), for which the Potency was inactive: > 76.9 µM. The result for `CCOc1ccc(C(=O)O)cc1OC` reads inactive: > 76.9 µM. The result for `N#CCCSCc1ccc(C(=O)O)o1` reads inactive: > 76.9 µM. The result for `O=C(COC(=O)c1cnccn1)Nc1ccc(Cl)cc1` reads inactive: > 76.9 µM; that for `COc1cc2[nH]c(=O)n(CCC(=O)N3CCN(c4cc(Cl)ccc4C)CC3)c(=O)c2cc1OC`, inactive: > 76.9 µM. On to `CC(C)=CCCC(C)NC(=O)NC1CCCCC1` (stereo not given), for which the Potency was inactive: > 76.9 µM. Then `COC(=O)c1ccccc1NC(=O)C(C)NS(=O)(=O)c1ccc(OC)cc1` (stereo not given), with inactive: > 76.9 µM; and `COc1cccc2sc(Nc3nc(-c4ccccn4)cs3)nc12`, with inactive: > 76.9 µM. On to `CCOC(=O)C1C(C)=CC(=O)CC1c1ccco1` (stereo not given), for which the Potency was inactive: > 76.9 µM. The result for `CCOCCCNC(=O)c1ccc(OC)cc1` reads inactive: > 76.9 µM. Turning to `CCC1(CC)NC(=O)NC1=O`, the Potency was inactive: > 76.9 µM. Then `COCCn1c(=S)[nH]c2ccc(N(C)C)cc2c1=O`, with inactive: > 76.9 µM; and `CCN1C(=O)CC(N2CCC(C(=O)N3CCOCC3)CC2)C1=O` (stereo not given), with inactive: > 76.9 µM; and `CN1CCN(S(=O)(=O)c2ccc3[nH]cc(C(=O)O)c(=O)c3c2)CC1`, with inactive: > 76.9 µM. As to `COc1nc(NCCc2ccc(OC)c(OC)c2)nc(OC)n1`, the Potency is inactive: > 76.9 µM. Then `CC(C)CCNC(=O)CCCOc1cc(=O)n(C)c2ccccc12`, with inactive: > 76.9 µM; and `CCn1c(=O)cc(SCC(=O)N2CCN(C3CCCCC3)CC2)c2ccccc21`, with inactive: > 76.9 µM. Then `CCSc1ccccc1C(=O)n1nnc2ccccc21`, with inactive: > 76.9 µM; and `CCOC(=O)CSc1nnc(-c2nnc(SCC(=O)OCC)n2CC)n1CC`, with inactive: > 76.9 µM. Regarding `NC(=O)c1cnn2c(C(F)(F)F)cc(-c3ccccc3)nc12`, the Potency is inactive: > 76.9 µM. Then `O=C(NCc1ccco1)c1cc(-c2cccnc2)nc2ccccc12`, with inactive: > 76.9 µM. On to `O=C(CCn1nc(-c2ccc(Cl)cc2)ccc1=O)N1CCN(c2ccccn2)CC1`, for which the Potency is inactive: > 76.9 µM. In the case of `CC(C)CCn1c(=O)c2ccccc2n2c(CN(C)Cc3ccccc3)nnc12`, the Potency was inactive: > 76.9 µM. Then `COC(=O)c1[nH]c2ccc(C)cc2c1NS(=O)(=O)c1ccc(F)c(C)c1`, with inactive: > 76.9 µM; and `COc1ccc(C)cc1S(=O)(=O)N1CCC(C(=O)N2CCOCC2)CC1`, with inactive: > 76.9 µM. Then `CC(C)Cn1c(SCC(=O)N2CCN(S(=O)(=O)c3ccccc3)CC2)nc2ccccc21`, with inactive: > 76.9 µM; and `Cc1nnc(Sc2nc3c(c(=O)n(C)c(=O)n3C)n2Cc2ccccc2Cl)s1`, with inactive: > 76.9 µM; and `CC(C)OCCCNC(=O)c1ccncc1`, with inactive: > 76.9 µM. Consider `CNC(=O)CN(C1CCCCC1)S(=O)(=O)c1ccc(F)cc1`, for which the Potency is inactive: > 76.9 µM. Consider `O=C(CN1CCN(c2ccc(Cl)cc2)CC1)Nc1ccc(F)cc1`, for which the Potency is inactive: > 76.9 µM. On to `CC1CCCCN1C(=O)c1cc(-c2ccc(Cl)c(Cl)c2)on1` (stereo not given), for which the Potency was inactive: > 76.9 µM. The result for `O=c1c2ccccc2nc(SCc2nc3ccccc3s2)n1Cc1ccco1` reads inactive: > 76.9 µM; that for `CCOC(=O)Cn1c(=O)c2c(nc(N3CCCCC3)n2Cc2ccccc2)n(C)c1=O`, inactive: > 76.9 µM.

As for `C=CCNC(=O)CN1C2CCCC1CC(NC(=O)c1ccccc1C)C2` (stereo not given), the Potency was inactive: > 76.9 µM. With `CCOc1ccc(N2C(=O)c3cccnc3C2Nc2ccc(Cl)cc2)cc1` (stereo not given), the Potency is inactive: > 76.9 µM. With `O=C(NCc1cccnc1)C1CCCN(S(=O)(=O)c2ccccc2)C1` (stereo not given), the Potency is inactive: > 76.9 µM.

With `Fc1ccc(CNc2nc(-c3ccco3)cc(C(F)(F)F)n2)cc1`, the Potency was inactive: > 76.9 µM.

Turning to `COc1ccc(C(=O)N2CCCC(c3nc(-c4cccs4)no3)C2)cc1` (stereo not given), the Potency was inactive: > 76.9 µM. Take `Cc1cc(N2CCCCCC2)nc(-c2ccccc2O)n1`: the Potency was inactive: > 76.9 µM. For `COc1ccc(OCC(=O)N2CCN(c3cccc(C(F)(F)F)c3)CC2)cc1`, the Potency is inactive: > 76.9 µM.

As to `CC1Cc2ccccc2N1S(=O)(=O)c1cccc2nsnc12` (stereo not given), the Potency was inactive: > 76.9 µM. With `CCOc1cc2[nH]c(=S)n(CCCOC)c(=O)c2cc1OCC`, the Potency is inactive: > 76.9 µM. For `Cc1c(C(=O)N2CCN(c3ccccc3)CC2)sc2ncnc(N3CCN(c4ccccc4)CC3)c12`, the Potency is inactive: > 76.9 µM. Then `CCOC(=O)c1cnc2ccccc2c1NCCO`, with inactive: > 76.9 µM. Then `COc1cc(OC)cc(-c2nnc(SCc3c(F)cccc3Cl)o2)c1`, with inactive: > 76.9 µM; and `O=C(Nc1ccc(S(=O)(=O)C(F)F)cc1)c1cccc(S(=O)(=O)N2CCOCC2)c1`, with “inactive”; and `Cc1ccc(-n2c3c(cc(C(=O)N4CCN(C)CC4)c2=O)C(=O)CC(C)(C)C3)cc1`, with inactive: > 76.9 µM.

For `CCOC(=O)C1CCCN(CC(=O)Nc2c(C(=O)OC)[nH]c3ccc(C)cc23)C1` (stereo not given), the Potency was inactive: > 76.9 µM. As to `COc1ccc(NC(=O)CSc2nc3c(c(=O)n2-c2ccc(F)cc2)SCC3)c(OC)c1`, the Potency is inactive: > 76.9 µM. Take `O=C(Nc1ccc2c(c1)OCCO2)c1cc(-n2cnnc2)ccc1Cl`: the Potency was inactive: > 76.9 µM. The result for `CCCn1c(C)nc2c(c1=O)c1nc3ccccc3nc1n2-c1ccc2c(c1)OCCO2` reads inactive: > 76.9 µM. Then `COc1ccc(S(=O)(=O)Nc2cccc(NC(C)=O)c2)cc1`, with inactive: > 76.9 µM; and `CCCC(C(=O)NC1CCCC1)N(C(=O)Cn1nnc(-c2ccc(C)o2)n1)C1CCCC1` (stereo not given), with inactive: > 76.9 µM.

As to `COc1ccc(N2CCN(c3nc4c(c(=O)n(C)c(=O)n4C)n3CCCc3ccccc3)CC2)cc1`, the Potency is inactive: > 76.9 µM. Then `COc1ccc(NC(=O)Cn2nnc(-c3ccccc3F)n2)cc1`, with inactive: > 76.9 µM; and `CCc1nc(NCCCN2CCOCC2)c2oc3ccccc3c2n1`, with inactive: > 76.9 µM; and `Cn1c(CNc2ccc(Cl)cc2)nc2ccccc21`, with inactive: > 76.9 µM. Regarding `CCOc1c(Br)cc(C2NS(=O)(=O)N=C3CCCCCN32)cc1OC` (stereo not given), the Potency is inactive: > 76.9 µM. Then `Nc1sc2c(c1C(=O)NC1CCS(=O)(=O)C1)CCC2` (stereo not given), with inactive: > 76.9 µM. Then `Cc1ccc(C(=O)Nc2ncc(Cc3ccccc3)s2)o1`, with inactive: > 76.9 µM. As to `CCSc1nc2c(c(=O)n1CC)SC(C)C2` (stereo not given), the Potency was inactive: > 76.9 µM. Then `COc1ccccc1N1CCN(CC(=O)Nc2cc(C)nn2-c2nc(C)cc(C)n2)CC1`, with inactive: > 76.9 µM; and `COc1ccc(CN2CCN(C(=O)c3cccnc3)CC2)cc1Br`, with inactive: > 76.9 µM. As to `CCOC(=O)c1sc(N)c(C#N)c1CSc1nc2ccc(OCC)cc2[nH]1`, the Potency was inactive: > 76.9 µM. Take `CCCc1[nH]n(-c2nc3ccccc3s2)c(=O)c1C=NCC1CCCO1` (stereo not given): the Potency was active: 12.7 µM. The result for `CN(C1CCCCC1)S(=O)(=O)c1ccc(-n2cnnn2)cc1` reads inactive: > 76.9 µM. The result for `Cc1ccc(C)c(-n2c(SCC(=O)Nc3nonc3C)nnc2-c2ccoc2C)c1` reads “inactive”; that for `CCC(C)C(NC(=O)C1CCC(C)CC1)C(=O)NC(C(=O)OC)C(C)C` (stereo not given), inactive: > 76.9 µM.
